# In PubChem BioAssay AID686979 (National Center for Advancing Translational Sciences (NCATS), 2013):
# Hit rate of the full screen: of about 420,000 compounds, about 50,000 (12%) were called active. This list was built around the results that the source calls inconclusive (neither active nor inactive); the mix of calls is not that of the screen. Calls come from the whole dose curve; as a rule, active = well fitted inhibition curve with a large enough effect; inconclusive = small, poorly fitted or top-dose-only effect; inactive = flat fitted curve, though single readings scatter. Potencies of inconclusive entries are left out as doubtful fits.
# Experiment: qHTS for Inhibitors of human tyrosyl-DNA phosphodiesterase 1 (TDP1): qHTS in cells in presence of CPT; note: nearly all actives have a fitted effect of over 55% in size
# Details: chicken DT40 Tdp1-/-;hTDP1 cells + 20 nM CPT, ATP luminescence, 48 h; activity change, negative = growth inhibition: at 46.2 µM (top of the series) unless noted
# Method in brief: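 Chicken DT40 Tdp1-/- cells stably complemented with human TDP1 were seeded at 400 cells/well in medium containing 20 nM camptothecin, exposed to pin-transferred compounds, and grown at 37 °C for at least 48 hr. Viability was read as ATP luminescence.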
# % is set by controls: 0 for no effect and ±100 for the full control effect; potency is the fitted concentration of half-maximal effect; tags give direction and shape of the fitted curve.
SMILES,Potency,"activity change, negative = growth inhibition"
Cc1ccccc1C(=O)c1c[nH]c(C(=O)NCc2cccs2)c1,"inconclusive [inhibitor, single point]",–
S=C(NC1CCCCC1)N(CCc1nc2ccccc2[nH]1)C1CCCC1,"inconclusive [inhibitor, single point]",–
O=C(CN1C(=O)CCS(=O)(=O)c2ccccc21)Nc1cccc(Cl)c1,inactive,–
CN(C)CCCN(C(=O)c1ccc2c(c1)CCCC2)c1nc2c(F)cccc2s1,active: 20.6 µM,–
CCOC(=O)c1sc2ccccc2c1S(=O)(=O)Nc1cccc(C(F)(F)F)c1,–,inconclusive: -34.6% [inhibitor]
O=C(O)C1=CC[C@@H](c2ccc(Cl)cc2)N(S(=O)(=O)c2ccc(Cl)cc2)[C@H]1c1ccc(Br)cc1,"inconclusive [inhibitor, single point]",–
CC1(C(=O)Nc2cccc(C#N)c2)CCN1C(=O)C1(c2ccccc2)CC1 (centres undefined),active: 5.17 µM,–
O=C(COC(=O)CCCSc1nc2ccccc2[nH]1)Nc1ccc(Cl)cc1,inactive,–
C(=Nc1ccc(Nc2ccccc2)cc1)c1ccc2ccccc2c1,active: 13 µM,–
Cc1ccc(N=c2c([N+](=O)[O-])nn(-c3ccc(Cl)cc3)n2O)cc1C,inactive,–
O=C(Nc1ccccc1C(=O)O)c1ccc(NC(=O)C2CC2)cc1,–,inconclusive: -30.5% [inhibitor]
c1ccc2cc(C3=NCCN3)ccc2c1,inactive,–
c1ccc(-c2c[nH]c(-c3ccccc3)c2)cc1,inactive,–
Cc1nccn1CCc1n[nH]c(=S)n1Cc1ccccc1,inactive,–
Cc1c(NC(=O)c2ccc(-c3ccc([N+](=O)[O-])cc3Cl)o2)c(=O)n(-c2ccccc2)n1C,inactive,–
COc1ccc(CN2CCN(Cc3nc4ccccc4s3)CC2CCO)c(C)c1C (centres undefined),"inconclusive [inhibitor, single point]",–
C=CCNC(=O)c1cc2c(=O)n3ccccc3nc2s1,inactive,–
O=C(NCc1ccccc1)C1(c2cccc(F)c2)CCCC1,"inconclusive [inhibitor, partial curve]",–
Cc1c(Cl)cccc1NC(CC(=O)c1ccccc1)C(=O)O (centres undefined),active: 14.6 µM,–
Cc1ccc(C(=O)NCCCNC(=O)COc2ccc(Cl)cc2)cn1,inactive,–
CCc1ccccc1NCC(=O)Nc1ccccc1C(=O)OC,"inconclusive [inhibitor, partial curve]",–
CCOC(=O)C1CCCN(c2nc3ccccc3nc2C(C#N)C(=O)OCC)C1 (centres undefined),"inconclusive [inhibitor, single point]",–
O=C(c1cc(COc2ccc(F)cc2F)on1)N1CCN(C(=O)c2ccco2)CC1,"inconclusive [inhibitor, single point]",–
CSC(=NC#N)N1CCN(C(c2ccccc2)c2ccccc2)CC1,"inconclusive [inhibitor, single point]",–
NC(=O)CC(NC(=O)c1ccccc1)c1ccc(N2CCc3ccccc3C2)c([N+](=O)[O-])c1 (centres undefined),"inconclusive [inhibitor, single point]",–

SMILES,Potency,"activity change, negative = growth inhibition"
COc1ccc(CNC(=O)C(C#N)c2nc3ccccc3nc2N2CCCC2)cc1 (centres undefined),"inconclusive [inhibitor, single point]",–
COc1ccc(C2=NS(=O)(=O)N(C)C(C(=O)Nc3cc(OC)c(OC)c(OC)c3)=C2)cc1,active: 11.6 µM,–
CC(=O)c1c(C)[nH]c(C(=O)CN2CCN(S(=O)(=O)c3ccccc3[N+](=O)[O-])CC2)c1C,active: 20.6 µM,–
O=C(N/N=C/c1ccccn1)c1cccc(NC(=O)c2ccccc2Cl)c1,"inconclusive [inhibitor, partial curve]",–
Cc1cc2c(cc1C)N[C@]1(C[C@H]3CCCC(=O)N4CC[C@@H](C1)[C@@H]34)C(=NCc1ccccc1)N2,active: 11.2 µM,–
COc1ccc(-c2cccc(NS(=O)(=O)c3cccc([N+](=O)[O-])c3)c2)nn1,"inconclusive [inhibitor, single point]",–
COc1ccc(C)cc1N1C(=O)[C@@H]2C[C@H]1CN2Cc1cccc(OC)c1O,–,inactive: -12.7% [at 9.04 µM]
CC(C)OCCCNC(=O)c1ccc2c(=O)n(CCc3ccccc3)c(=O)[nH]c2c1,inactive,–
Cc1oc(-c2cccc(Cl)c2)nc1CN1CCCC(C(=O)NCc2ccc(F)cc2)C1 (centres undefined),active: 5.8 µM,–
CC1CN(C(=O)c2ccccc2OCc2ccc(Cl)cc2Cl)CC(C)O1 (centres undefined),active: 16.4 µM,–
COc1ccc(C(NC(=O)C2CCN(CCOc3ccc(Cl)cc3Cl)CC2)c2cccs2)cc1 (centres undefined),"inconclusive [inhibitor, single point]",–
O=C(Nc1ccccc1SC(=O)c1ccccc1)c1ccccc1,active: 3.26 µM,–
O=C(CSc1ncn[nH]1)NCc1ccc(Cl)cc1,inactive,–
O=C(NCCCCc1ccccc1)c1cccc(NC(=O)C2CCCCC2)c1,"inconclusive [inhibitor, single point]",–
Cc1nnc(SCC(=O)N2CCc3ccccc32)n1-c1ccccc1,inactive,–
Nc1cccc(-n2nnnc2CN2CCOCC2)c1,"inconclusive [inhibitor, single point]",–
Cc1ccc(-c2nnn(CC(=O)N(Cc3ccccc3F)C(C(=O)NC3CCCC3)c3ccncc3)n2)o1 (centres undefined),inactive,–
COC(=O)/C(C#N)=C/c1ccc(N2CCOCC2)c([N+](=O)[O-])c1,inactive,–
CC(C)c1cc(C(=O)Nc2cc(Cl)ccc2O)no1,"inconclusive [inhibitor, single point]",–
Cc1ccc(-c2c(C(=O)NCc3ccccc3)oc(=O)c3ccccc23)cc1,"inconclusive [inhibitor, single point]",–
COc1ccc(-c2[nH]ncc2CN2CCN(Cc3cccs3)CC2)cc1F,–,inconclusive: -30.6% [inhibitor]
O=C(COC(=O)c1cc2ccccc2o1)NCc1ccco1,inactive,–
COc1ccccc1C(=O)Nc1ccc2c(c1)CN(Cc1cnc(C)s1)CC2,"inconclusive [inhibitor, single point]",–
Cc1ccc(-n2cc(CNC(C)c3cnn(C)c3C)c(-c3ccc(F)cc3)n2)cc1 (centres undefined),active: 5.17 µM,–
CCC(C)NC(=O)c1ccc(-n2c(-c3ccccc3)cc3c2CCCC3)cc1 (centres undefined),active: 16.4 µM,–

SMILES,Potency,"activity change, negative = growth inhibition"
COc1ccc(N2CCN(C(=O)C(Cc3ccccc3)n3cccc3)CC2)cc1 (centres undefined),"inconclusive [inhibitor, single point]",–
COc1ccc2c(c1)CCc1c(C(=O)NCCc3ccc(OC)c(OC)c3)noc1-2,"inconclusive [inhibitor, single point]",–
CCOc1ccc(-c2nc3c(s2)CCc2onc(-c4ccc(OC)cc4)c2-3)cc1,inactive,–
Cc1ccc(S(=O)(=O)N2CCCCC2)cc1NC(=O)CCNC(=O)c1ccc([N+](=O)[O-])cc1,active: 23.1 µM,–
CC(C)Nc1ncnc2c1ncn2[C@H]1CN(Cc2ccc(F)cc2)C[C@@H](CO)O1,inactive,–
COc1cc(NC(=O)c2ccc(OCc3c(C)noc3C)c(OC)c2)cc(OC)c1,"inconclusive [inhibitor, single point]",–
O=C(O)c1ccccc1C(=O)NC1Cc2ccccc2C1,inactive,–
CCOC(=O)[C@@H]1[C@H]2COc3ccc(Br)cc3[C@H]2N2C(=O)N(c3ccc(Br)cc3)C(=O)[C@]12C,"inconclusive [inhibitor, partial curve]",–
CC(=O)Nc1ccc(S(=O)(=O)Nc2ccc3c(c2)OCCO3)cc1Cl,"inconclusive [inhibitor, single point]",–
CCN(CC(=O)Nc1ccccc1OC)C(=O)CSCc1ccc(C)cc1,"inconclusive [inhibitor, single point]",–
COc1ccc(OCC(=O)N/N=C2\CCCCc3ccccc32)cc1,"inconclusive [inhibitor, single point]",–
COCCNC(=O)C(=O)NCC1OCCN1S(=O)(=O)c1cc(F)ccc1F (centres undefined),inactive,–
CCOC(=O)C1=C(CS(=O)(=O)c2ccc(Br)cc2)NC(=O)NC1c1ccccc1 (centres undefined),active: 20.6 µM,–
O=C(O)COc1ccccc1/C=C1\SC(=S)N(NC(=O)c2ccccc2O)C1=O,inactive,–
COc1ccc(C)cc1NC(=O)CN(c1cc(C(F)(F)F)ccc1Cl)S(C)(=O)=O,"inconclusive [inhibitor, single point]",–
Cc1ccc(-c2nc3c(Cl)cc(C(F)(F)F)cn3c2Cc2ccsc2)cc1,"inconclusive [inhibitor, single point]",–
CCC(CO)Nc1ccn2nc(-c3cccc(Cl)c3)cc2n1 (centres undefined),active: 23.1 µM,–
COc1ccc(Nc2ncc(C(=O)N3CCN(Cc4ccccc4)CC3)c3ccccc23)cc1,active: 18.4 µM,–
CC(OC(=O)Cn1cnc2ccccc2c1=O)C(=O)N(C)c1ccccc1 (centres undefined),"inconclusive [inhibitor, partial curve]",–
COC(=O)c1cccc(CC2(C)C(=O)Nc3cc(-c4ccccc4Cl)ccc32)c1 (centres undefined),active: 16.4 µM,–
CC1=C(C(=O)N(C(C)C)C(C)C)CC(CC(=O)NCCc2ccccn2)C(=O)N1CCC1=CCCCC1 (centres undefined),"inconclusive [inhibitor, full curve, poor fit]",–
COc1cccc(N2CCN(C(=S)Nc3ccccc3)CC2)c1,inactive,–
CC(=O)c1c(C)oc2ccc(N(C(=O)Oc3ccccc3)S(=O)(=O)c3ccc(C(C)(C)C)cc3)cc12,active: 5.17 µM,–
CC(=O)Nc1ccc(C(=O)N/N=C/c2ccccc2OCc2ccccc2)cc1,"inconclusive [inhibitor, single point]",–
